This list was built around the results that the source calls inconclusive (neither active nor inactive); the mix of calls is not that of the screen. A potency beside an inconclusive call is a rough fit, not a confirmed value. Calls of active or inactive are those of the source. Calls follow the shape of the dose curve; as a rule, active = well fitted inhibition curve with a large enough effect; inconclusive = small, poorly fitted or top-dose-only effect; inactive = no such curve, though single readings can be large or run the other way.
Test: Confirmatory qHTS for Identification of Small Molecule Inhibitors of Huntingtin Promoter Activity; also: nearly all actives have a fitted effect of over 65% in size;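 as to activity change, negative = inhibition: 0% = vehicle control and -100% = zero luminescence signal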
Details: HEK293 HTT promoter firefly luciferase reporter, 24 h; series mostly up to 57.5 µM; activity change, negative = inhibition: at the top concentration
How it was run: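 2,500 luciferase reporter HEK293 cells/well; 24 h culture; cpds up to 57.5 uM final, PTC124 50 uM ctrl; 24 h, 37C; Dual-Glo FLuc reagent, 10 min RT; lum. Norm.: vehicle 0%, zero RLU -100%.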
Potency is read from the fitted curve at half-maximal effect; tags tell the direction and shape of the fitted curve.

Compound	Potency	activity change, negative = inhibition
Cc1cccc(N2CCN(C(=O)C3CCN(S(=O)(=O)c4c(C)noc4C)CC3)CC2)c1C	inconclusive: 19 µM [inhibitor, partial curve]	
Cc1ccc(NC(=O)C2CCCN2S(=O)(=O)c2ccc3c(c2)CCCC(=O)N3)cc1C (stereo not given)	inconclusive: 23.9 µM [inhibitor, single point]	
Cc1cccc(CCNC(=O)c2c[nH]c3ccc(S(=O)(=O)Nc4ccccc4F)cc3c2=O)c1	inconclusive: 23.9 µM [inhibitor, partial curve]	
COc1cc(NC(=O)NC(C)c2c(-n3cccc3)sc3c2CCCC3)cc(OC)c1OC (stereo not given)	inconclusive: 33.8 µM [inhibitor, single point]	
COc1cccc(C(=O)Nc2ccc(S(=O)(=O)N(Cc3ccccc3)c3ccccc3)cc2)c1	inconclusive: 3.79 µM [inhibitor, partial curve]	
Fc1ccc(N2CCN(c3ncnc4c3nc3n4CCCCC3)CC2)cc1	inconclusive: 9.53 µM [inhibitor, partial curve]	
COc1ccc(NC(=O)c2cc(S(=O)(=O)NCCC3=CCCCC3)ccc2F)cc1	inconclusive: 5.36 µM [inhibitor, partial curve]	
O=C(NCC(c1ccc2c(c1)OCO2)N1CCN(c2ccc(F)cc2)CC1)c1cccc([N+](=O)[O-])c1 (stereo not given)	inconclusive: 21.3 µM [inhibitor, partial curve]	
O=C(Cn1cc(S(=O)(=O)Cc2ccccc2F)c2ccccc21)Nc1ccc(F)c(Cl)c1	inconclusive: 23.9 µM [inhibitor, partial curve]	
CC(C)Cn1c(-c2ccc(S(=O)(=O)N3CCCC3)cc2)csc1=Nc1ccccc1	inconclusive: 23.9 µM [inhibitor, partial curve]	
C[n+]1cc2c3c(ccc2c2ccc4cc5c(cc4c21)OCO5)OCO3	active: 5.86 µM	
COc1ccc(Nc2c3c(nc4ccc(NC(=O)/C=C/c5cccc(OC)c5OC)cc24)CCCC3)cc1OC	inconclusive: 26.9 µM [inhibitor, single point]	
COc1ccc(CC(=O)Nc2ccc(-c3nc4ccccc4s3)cc2Cl)cc1OC	inconclusive: 37.9 µM [inhibitor, single point]	
CCn1c(=O)sc2cc(NS(=O)(=O)c3ccc(F)c(C)c3)ccc21	inconclusive: 8.49 µM [inhibitor, partial curve]	
O=C(COCc1cc(-c2cccs2)on1)N1CCN(c2cccc(Cl)c2)CC1	inconclusive: 26.9 µM [inhibitor, single point]	
CN(C)CCNC(=O)C1CCN(Cc2cc3ccccc3n2Cc2ccccc2)CC1	inconclusive: 37.9 µM [inhibitor, single point]	
CCOC(=O)c1cnc2ccc(OC)cc2c1Nc1ccc(OCc2ccccc2Cl)cc1	inconclusive: 13.5 µM [inhibitor, partial curve]	
O=S(=O)(NCc1ccc(F)cc1)c1ccc(N2CCCCS2(=O)=O)cc1	inconclusive: 13.5 µM [inhibitor, partial curve]	
CC(C)OCc1cc(CN2CCN(c3cccc(C(F)(F)F)c3)CC2)c(O)c2ncccc12	active: 9.53 µM	
CCOc1ccc(NCc2cccn2-c2nnc(N3CCC(C(=O)NCCc4ccc(OC)c(OC)c4)CC3)s2)cc1	inconclusive: 10.7 µM [inhibitor, partial curve]	

Compound	Potency	activity change, negative = inhibition
Cc1cc(Cl)ccc1OCC(=O)N1CCC(c2nc3ccccc3s2)CC1	inconclusive: 30.1 µM [inhibitor, single point]	
COc1ccc(NC(=O)CSc2nc(-c3ccco3)cc(C(F)(F)F)n2)cc1OC	inconclusive: 3.79 µM [inhibitor, partial curve]	
COc1ccc(-c2noc(CSc3nnc(-c4ccccc4)n3-c3ccc(F)cc3)n2)c(OC)c1	inconclusive: 26.9 µM [inhibitor, single point]	
Cc1cc(C)cc(NC(=O)Nc2cccs2)c1		inactive: -0.991%
CCOc1ccc(C(=O)Nc2ccc3c(c2)CCCN3S(=O)(=O)c2ccc(C)cc2)cc1	inconclusive: 12 µM [inhibitor, partial curve]	
CCOc1cc(CNC(=O)c2sc3ncnc(N(C)C4CCCCC4)c3c2C)ccc1OC	inconclusive: 26.9 µM [inhibitor, partial curve]	
Cc1ccc2onc(CC(=O)Nc3cccc(C(F)(F)F)c3)c2c1	inconclusive: 30.1 µM [inhibitor, single point]	
Cc1ccc(S(=O)(=O)C(CNC(=O)C(=O)NCCc2ccc(F)cc2)c2cccs2)cc1 (stereo not given)	inconclusive: 6.01 µM [inhibitor, full curve]	
CCOC(=O)C1CCC(CN(Cc2ccc(Cl)cc2)S(=O)(=O)c2cc(Cl)cc(Cl)c2)CC1 (stereo not given)	inconclusive: 12 µM [inhibitor, partial curve]	
O=c1c(O)c(-c2ccc(O)cc2)oc2cc(O)cc(O)c12		inactive: 19.1%
COc1ccc(-c2ccc3ncc4c(c3c2)n(-c2ccc(N3CCNCC3)c(C(F)(F)F)c2)c(=O)n4C)cn1		inactive: -2.51%
Cn1c(Oc2ccc(F)cc2)nc2c1c(=O)n(Cc1ccccc1Cl)c(=O)n2C	inconclusive: 26.9 µM [inhibitor, partial curve]	
COc1ccc2sc(N(Cc3cccnc3)C(=O)c3ccc4c(c3)OCCO4)nc2c1	inconclusive: 26.9 µM [inhibitor, single point]	
Cc1cc(C)c(Cn2c3ccccc3c3cnn(CC(=O)N4CCCCC4)c(=O)c32)c(C)c1		inactive: -23.5%
Cn1cc(CNCC2CCN(c3ncc(C(=O)NO)cn3)CC2)c2ccccc21		inactive: 16.7%
CC(C)Oc1ccc(CNC(=O)C2CCN(C(=O)N3CCOc4ccc(Cl)cc43)CC2)cc1	inconclusive: 12 µM [inhibitor, partial curve]	
CSc1cccc(NC(=O)C2CCN(C(=O)c3cnn(-c4ccccc4)c3-n3cccc3)CC2)c1	inconclusive: 21.3 µM [inhibitor, single point]	
CCc1ccc(NC(=O)c2ccc(F)c(S(=O)(=O)NCCc3ccc(OC)c(OC)c3)c2)cc1	inconclusive: 23.9 µM [inhibitor, single point]	
Cc1cccc(C2C=C(c3ccc(F)cc3)Nc3nc4ccccc4n32)c1 (stereo not given)		inactive: 21.9%
CCCS(=O)(=O)NCCc1sc2nc(-c3ccc(F)cc3)nn2c1C		inactive: -27.6%

— PubChem BioAssay AID1508621 (National Center for Advancing Translational Sciences (NCATS), 2021)
